In the supplement of paper PMC10126150:
Values marked as one replicate rest on one cluster of the flow cell; about a third of the high ones do not repeat.

System: ATP
Test: switch fluorescence ratio, 500 uM ATP over buffer (Cy3 cluster intensity, sum of 5 cycles each) (fold (ratio)); higher = stronger signal-on switching upon ATP binding; sequences stand for … in TCGTCGGCAGCGTCAGATGTGTATAAGAGACAGTTTTTTTTTTTTTTTTTTTTTTTTT…TC
Details: aptamer strand: ATP DNA aptamer (quencher-CACCTGGGGGAGTATTGCGGAGGAAGG + anchor), 100 nM annealed; ATP concentration: 500 uM; one replicate
How it was run: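 Exposure to 500 uM ATP lasted 15 min at 22 °C before imaging, and a selection-buffer image was taken beforehand, for Cy3-labelled switching-strand clusters on a modified Illumina MiSeq flow-cell annealed to 100 nM quencher-labelled ATP aptamer. Five buffer/ATP cycles were run with NaOH stripping and re-annealing between them. The fluorescence ratio per cluster is summed target-cycle over summed buffer-cycle Cy3 intensity, averaged per switch-domain sequence. Clusters outside 100-1000 RFU were excluded.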

Sequence	switch fluorescence ratio
TCGTTTGAGA	0.985
GGGGATGGCC	0.986
GTCGCTAAGA	0.97
TAGTTAATGG	0.989
GCTCTACACC	1.16
TCAAAGGAGA	0.968
GTACCCGGGG	1.02
GCTAGTCCAG	1.03
GAAGAATTCA	0.992
GCAATGGAAC	1.79
GTGAAGAG	0.951
GGAGAAAAGC	0.996
TCTGCGTCCC	1.03
TCAAACATGC	1.02
AGGGGGGGCA	1.03
GGATCAGGCA	0.969
CAGCGCAGTG	0.981
CAAACGATAG	0.948
ACGGGGCTAC	1.42
TAAGCACACC	1.28
TTGGTATATG	1
ATGTCTAGGT	0.957
TAGTAATCCA	1.02

Sequence	switch fluorescence ratio
CTCCTGTTAC	1.09
TGGCTGATCT	0.995
GTTAGGGAGT	0.988
GTCGTAAATC	1.09
CGTTACCTTC	1.29
ATGGCGATGT	1.01
CCTGTTGGCC	0.991
ACACGGGCGA	1.03
GTCGCGCTAT	1.03
GTAACGCTAT	1.17
CGGCATAGTT	0.998
TTACGCGTCG	1.1
CGATACCTTA	1.01
TGGCTGTGGC	0.957
ATGGCGTAGG	1.03
GAGCCGGGTG	0.986
TGCAATTAAA	0.999
GTTGATTATC	1
AGTATGGGA	0.969
ATAGCATCGG	1
GGCTTTATGT	1.05
CGCCTTACGA	1.56
CCTGCTAAAG	1.08

Sequence	switch fluorescence ratio
GGTGGCGCAC	0.985
CTGGGGCCCA	1.01
TATATAGCCC	1.01
GTTGGAGTCT	0.981
GTGGTACTTT	1
GAAGATACGA	1.08
TCTAAAGAAT	0.982
TTACCGGCGA	1.02
TGAGCAGGGT	1.05
GCAGCTTATG	1.04
CTTATCGGGC	0.929
TAACTCAGGG	1.03
CGGGAGCTGA	1
ACGCCGAATA	1.32
TTTAAAGTG	0.999
AATTGCACCC	1.06
GTATGAGACG	0.973
ACCAAAAGGA	1.22
TGGTCATAG	1.03
CGACGACTA	1.57
TTTGATGATG	0.971
CGGCAGAGGC	0.994
TTTGTAAGCA	1.01

Sequence	switch fluorescence ratio
TCGAGGTGA	1.04
TGATACGCTC	1.13
TGATAGGTTT	0.983
AAGTCTATCC	0.996
AGACATGGCT	0.995
TGCTTGGTCA	0.978
ATGAGCGCTA	1.02
CACTGCTACC	1.48
TGTCTGGGCC	0.988
ATGGGAGGAG	0.989
GTAGATGGGC	1.02
TCGCAAGCAT	1.77
TGACTGGTCG	0.974
ACTCGCAACT	4.11
ACACTCATGT	1.03
GCCACCGGTC	0.931
CCATAGAAGG	2.56
TAAAAGGCTC	0.971
TATAAATCTT	1.02
GGCGAATCTG	1.01
ATCACTCACC	1.3
CAGGGATGGT	1.04
ATCATAATTT	0.981

Sequence	switch fluorescence ratio
CCGTTTGTAT	1.01
CTCAGGATGA	0.988
AGGACCGCGT	1.01
GTAGAAGGTG	1.35
AGACTAAGTC	0.98
GGAGCTAGTG	0.958
CGCATGTTTA	1.08
TTATTTTGAA	1.03
CTCGTTGTG	0.975
AATGCTGTT	1.03
CTTTTGGGTT	0.953
TTTGATAACA	1.03
GGGTGTGTAT	0.975
GTTATGTCAG	0.99
ACCAATTTAC	1.22
GCAAGGATTG	1.05
TGCGAAATTA	0.992
GTGTGTCCAA	0.999
TGCAGTTTTC	1.08
TCAACGTAT	1.04
TGCAGGCTGG	1.01
AGGATTTCTT	1.04
CGGGTGATCT	1

Sequence	switch fluorescence ratio
TCTTAGACGG	1.01
TATTTATTT	1.06
AGCCAAATTG	0.99
TCCATTGCAA	2.85
CGGTCTAATC	1.05
TTAACGGAGT	1.01
CAACGCCGTT	1.08
TTGAGAGCCT	1.08
GTAACTATA	1.07
GATGGAAGTA	1.03
AAAACGAGTA	0.998
GACCCCGGTT	1.15
GCCGCATGCA	1.26
GGTTTGCCGC	1.08
ACTGGTGGGC	1.03
CTGTGGGGCT	1.04
CAACGATGTG	1.03
CAGTCCCGGA	1.02
TGAAAGGGG	1.01
AAAGCTACGC	1.08
GGCGCCGCG	1.02
CAAGGTAGCT	0.977
ACACTAGTAT	1.02

Sequence	switch fluorescence ratio
GTAAACTGAA	1.01
TAATGAGTTC	1.01
AGTTGACACG	1.02
CAAAGGAATG	1.02
ATGCCCAGC	0.962
GTAAAACTGA	1.06
CCTCAGATGT	1.32
TAAGATTGCC	1.06
TATAACTCGA	0.991
TGGGAATCAA	0.971
TAAGTCAAAG	0.981
ATAGTGTATC	0.986
CCCGTCTACG	1.06
TCTAGTAAGT	0.989
TTAGACGCGT	1.07
CAGTTTTGTT	0.992
GATTTAATTC	0.968
ATCCGATTTT	0.976
CCACGCTTGG	1.04
